Assay results from PMC7731500.
These are yes or no findings as the source states them, for the method shown. Some results given as binding are weak or reduced against the parent protein; the word gives no strength.

Protein sequences, listed by entry. Tags and fused reporters are not part of them.
UniProt Q9C9K7: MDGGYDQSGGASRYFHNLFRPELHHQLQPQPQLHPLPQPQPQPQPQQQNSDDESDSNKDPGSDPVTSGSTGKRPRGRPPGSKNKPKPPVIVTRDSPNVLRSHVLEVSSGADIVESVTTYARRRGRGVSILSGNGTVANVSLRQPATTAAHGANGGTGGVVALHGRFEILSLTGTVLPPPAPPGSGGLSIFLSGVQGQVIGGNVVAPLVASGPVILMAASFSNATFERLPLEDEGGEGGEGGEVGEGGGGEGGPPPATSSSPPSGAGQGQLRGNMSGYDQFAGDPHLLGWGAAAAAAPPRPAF
UniProt O22130: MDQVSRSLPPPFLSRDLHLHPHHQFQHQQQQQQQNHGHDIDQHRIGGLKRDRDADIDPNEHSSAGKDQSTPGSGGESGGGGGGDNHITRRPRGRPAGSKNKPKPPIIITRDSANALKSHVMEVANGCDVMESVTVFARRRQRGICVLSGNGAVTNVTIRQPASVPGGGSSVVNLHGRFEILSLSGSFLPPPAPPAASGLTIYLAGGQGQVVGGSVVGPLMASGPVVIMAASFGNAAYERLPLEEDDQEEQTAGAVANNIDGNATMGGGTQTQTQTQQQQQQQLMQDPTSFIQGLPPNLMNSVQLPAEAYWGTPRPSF

T1: AtAHL6 (Arabidopsis thaliana) (UniProt Q9LVB0)
T1 sequence: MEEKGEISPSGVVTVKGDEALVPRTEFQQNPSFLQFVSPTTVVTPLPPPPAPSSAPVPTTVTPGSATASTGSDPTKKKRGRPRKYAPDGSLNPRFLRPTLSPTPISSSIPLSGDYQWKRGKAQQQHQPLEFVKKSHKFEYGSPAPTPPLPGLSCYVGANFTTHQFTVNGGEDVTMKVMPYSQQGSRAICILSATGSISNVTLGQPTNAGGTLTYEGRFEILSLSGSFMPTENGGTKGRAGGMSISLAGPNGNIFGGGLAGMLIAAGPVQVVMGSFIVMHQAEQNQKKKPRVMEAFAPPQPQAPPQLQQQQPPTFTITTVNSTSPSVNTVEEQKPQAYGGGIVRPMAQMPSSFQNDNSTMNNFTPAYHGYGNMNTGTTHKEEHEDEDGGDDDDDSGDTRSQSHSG

T2: AT-HOOK MOTIF CONTAINING NUCLEAR LOCALIZED #20 (AtAHL20) (Arabidopsis thaliana) (UniProt Q8GWQ2)
T2 sequence: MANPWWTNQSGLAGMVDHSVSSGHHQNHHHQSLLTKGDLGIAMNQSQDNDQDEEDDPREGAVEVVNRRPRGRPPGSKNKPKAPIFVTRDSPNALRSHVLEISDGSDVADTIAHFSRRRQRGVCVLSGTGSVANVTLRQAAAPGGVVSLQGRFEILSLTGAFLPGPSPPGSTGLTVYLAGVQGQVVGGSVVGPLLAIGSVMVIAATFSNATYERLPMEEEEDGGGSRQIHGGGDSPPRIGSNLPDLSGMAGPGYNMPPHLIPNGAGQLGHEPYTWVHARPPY


Legend:
Experiment in all cases: two-hybrid; targeted yeast two-hybrid in yeast strain L40ccU3; bait in pBTM116-GW-D9, prey in pACT2-GW; growth of four colonies on SDIV lacking tryptophan, leucine, histidine and uracil with 1 mM 3-AT; 28 °C, 3-6 days
[1] = target: T1, AtAHL6 (Arabidopsis thaliana)
[2] = target: T2, AT-HOOK MOTIF CONTAINING NUCLEAR LOCALIZED #20 (AtAHL20) (Arabidopsis thaliana)
[3] = target: AtAHL29 (Arabidopsis thaliana) (UniProt Q9C9K7)
[4] = target: AtAHL22 (Arabidopsis thaliana) (UniProt O22130)
[5] = target: AtAHL19 (Arabidopsis thaliana) (UniProt Q9SR17)

binding [1]	binding [2]	binding [3]	binding [4]	binding [5]	Binder
binds	–	–	–	–	AtAHL6 (protein, UniProt Q9LVB0 1-404) MEEKGEISPSGVVTVKGDEALVPRTEFQQNPSFLQFVSPTTVVTPLPPPPAPSSAPVPTTVTPGSATASTGSDPTKKKRGRPRKYAPDGSLNPRFLRPTLSPTPISSSIPLSGDYQWKRGKAQQQHQPLEFVKKSHKFEYGSPAPTPPLPGLSCYVGANFTTHQFTVNGGEDVTMKVMPYSQQGSRAICILSATGSISNVTLGQPTNAGGTLTYEGRFEILSLSGSFMPTENGGTKGRAGGMSISLAGPNGNIFGGGLAGMLIAAGPVQVVMGSFIVMHQAEQNQKKKPRVMEAFAPPQPQAPPQLQQQQPPTFTITTVNSTSPSVNTVEEQKPQAYGGGIVRPMAQMPSSFQNDNSTMNNFTPAYHGYGNMNTGTTHKEEHEDEDGGDDDDDSGDTRSQSHSG
no binding	binds	binds	binds	–	AT-HOOK MOTIF CONTAINING NUCLEAR LOCALIZED #20 (AtAHL20) (protein, UniProt Q8GWQ2 1-281) MANPWWTNQSGLAGMVDHSVSSGHHQNHHHQSLLTKGDLGIAMNQSQDNDQDEEDDPREGAVEVVNRRPRGRPPGSKNKPKAPIFVTRDSPNALRSHVLEISDGSDVADTIAHFSRRRQRGVCVLSGTGSVANVTLRQAAAPGGVVSLQGRFEILSLTGAFLPGPSPPGSTGLTVYLAGVQGQVVGGSVVGPLLAIGSVMVIAATFSNATYERLPMEEEEDGGGSRQIHGGGDSPPRIGSNLPDLSGMAGPGYNMPPHLIPNGAGQLGHEPYTWVHARPPY
–	binds	binds	–	binds	AtAHL19 (protein, UniProt Q9SR17 1-315) MANPWWTGQVNLSGLETTPPGSSQLKKPDLHISMNMAMDSGHNNHHHHQEVDNNNNDDDRDNLSGDDHEPREGAVEAPTRRPRGRPAGSKNKPKPPIFVTRDSPNALKSHVMEIASGTDVIETLATFARRRQRGICILSGNGTVANVTLRQPSTAAVAAAPGGAAVLALQGRFEILSLTGSFLPGPAPPGSTGLTIYLAGGQGQVVGGSVVGPLMAAGPVMLIAATFSNATYERLPLEEEEAAERGGGGGSGGVVPGQLGGGGSPLSSGAGGGDGNQGLPVYNMPGNLVSNGGSGGGGQMSGQEAYGWAQARSGF
